# Assay results from the supplement of paper PMC11876631.
# ± gives the standard deviation of the averaged measurements. Laboratory Escherichia coli strains with one amino-acid change in an essential protein, pooled on minimal glucose agar with carbenicillin or gentamicin at twice the control MIC (plus kanamycin and chloramphenicol for the plasmids), 48 h. Fold change of barcode share against drug-free plates; higher = less susceptible. Active = above 20 in both replicates (the paper's putatively resistant). '<' = one read or none on drug, '>' = one read or none on a drug-free plate. Shares are relative, so most strains fall below 1 when a few take over. Listed are strains with at least 15 reads on both drug-free plates, and hits; most hits rest on fewer reference reads. Replicate rank correlation about 0.5. Edits are read from barcodes.
# B1: frr I24A (protein)
# chain: MISDIRKDAEVRMDKCVEAFKTQASKIRTGRASPSLLDGIVVEYYGTPTPLRQLASVTVEDSRTLKINVFDRSMSPAVEKAIMASDLGLNPNSAGSDIRVPLPPLTEERRKDLTKIVRGEAEQARVAVRNVRRDANDKVKALLKDKEISEDDDRRSQDDVQKLTDAAIKKIEAALADKEAELMQF
# B2: frr I24W (protein)
# chain: MISDIRKDAEVRMDKCVEAFKTQWSKIRTGRASPSLLDGIVVEYYGTPTPLRQLASVTVEDSRTLKINVFDRSMSPAVEKAIMASDLGLNPNSAGSDIRVPLPPLTEERRKDLTKIVRGEAEQARVAVRNVRRDANDKVKALLKDKEISEDDDRRSQDDVQKLTDAAIKKIEAALADKEAELMQF
# B3: frr I24Q (protein)
# chain: MISDIRKDAEVRMDKCVEAFKTQQSKIRTGRASPSLLDGIVVEYYGTPTPLRQLASVTVEDSRTLKINVFDRSMSPAVEKAIMASDLGLNPNSAGSDIRVPLPPLTEERRKDLTKIVRGEAEQARVAVRNVRRDANDKVKALLKDKEISEDDDRRSQDDVQKLTDAAIKKIEAALADKEAELMQF
# B4: frr I24D (protein)
# chain: MISDIRKDAEVRMDKCVEAFKTQDSKIRTGRASPSLLDGIVVEYYGTPTPLRQLASVTVEDSRTLKINVFDRSMSPAVEKAIMASDLGLNPNSAGSDIRVPLPPLTEERRKDLTKIVRGEAEQARVAVRNVRRDANDKVKALLKDKEISEDDDRRSQDDVQKLTDAAIKKIEAALADKEAELMQF
# B5: frr I24P (protein)
# chain: MISDIRKDAEVRMDKCVEAFKTQPSKIRTGRASPSLLDGIVVEYYGTPTPLRQLASVTVEDSRTLKINVFDRSMSPAVEKAIMASDLGLNPNSAGSDIRVPLPPLTEERRKDLTKIVRGEAEQARVAVRNVRRDANDKVKALLKDKEISEDDDRRSQDDVQKLTDAAIKKIEAALADKEAELMQF
# B6: ftsA V24A (protein)
# chain: MIKATDRKLVVGLEIGTAKVAALAGEVLPDGMVNIIGVGSCPSRGMDKGGVNDLESVVKCVQRAIDQAELMADCQISSVYLALSGKHISCQNEIGMVPISEEEVTQEDVENVVHTAKSVRVRDEHRVLHVIPQEYAIDYQEGIKNPVGLSGVRMQAKVHLITCHNDMAKNIVKAVERCGLKVDQLIFAGLASSYSVLTEDERELGVCVVDIGGGTMDIAVYTGGALRHTKVIPYAGNVVTSDIAYAFGTPPSDAEAIKVRHGCALGSIVGKDESVEVPSVGGRPPRSLQRQTLAEVIEPRYTELLNLVNEEILQLQEKLRQQGVKHHLAAGIVLTGGAAQIEGLAACAQRVFHTQVRIGAPLNITGLTDYAQEPYYSTAVGLLHYGKESHLNGEAEVEKRVTASVGSWIKRLNSWLRKEF
# B7: ftsA V24Q (protein)
# chain: MIKATDRKLVVGLEIGTAKVAALQGEVLPDGMVNIIGVGSCPSRGMDKGGVNDLESVVKCVQRAIDQAELMADCQISSVYLALSGKHISCQNEIGMVPISEEEVTQEDVENVVHTAKSVRVRDEHRVLHVIPQEYAIDYQEGIKNPVGLSGVRMQAKVHLITCHNDMAKNIVKAVERCGLKVDQLIFAGLASSYSVLTEDERELGVCVVDIGGGTMDIAVYTGGALRHTKVIPYAGNVVTSDIAYAFGTPPSDAEAIKVRHGCALGSIVGKDESVEVPSVGGRPPRSLQRQTLAEVIEPRYTELLNLVNEEILQLQEKLRQQGVKHHLAAGIVLTGGAAQIEGLAACAQRVFHTQVRIGAPLNITGLTDYAQEPYYSTAVGLLHYGKESHLNGEAEVEKRVTASVGSWIKRLNSWLRKEF
# B8: ftsA L54A (protein)
# chain: MIKATDRKLVVGLEIGTAKVAALVGEVLPDGMVNIIGVGSCPSRGMDKGGVNDAESVVKCVQRAIDQAELMADCQISSVYLALSGKHISCQNEIGMVPISEEEVTQEDVENVVHTAKSVRVRDEHRVLHVIPQEYAIDYQEGIKNPVGLSGVRMQAKVHLITCHNDMAKNIVKAVERCGLKVDQLIFAGLASSYSVLTEDERELGVCVVDIGGGTMDIAVYTGGALRHTKVIPYAGNVVTSDIAYAFGTPPSDAEAIKVRHGCALGSIVGKDESVEVPSVGGRPPRSLQRQTLAEVIEPRYTELLNLVNEEILQLQEKLRQQGVKHHLAAGIVLTGGAAQIEGLAACAQRVFHTQVRIGAPLNITGLTDYAQEPYYSTAVGLLHYGKESHLNGEAEVEKRVTASVGSWIKRLNSWLRKEF
# B9: ftsA L54W (protein)
# chain: MIKATDRKLVVGLEIGTAKVAALVGEVLPDGMVNIIGVGSCPSRGMDKGGVNDWESVVKCVQRAIDQAELMADCQISSVYLALSGKHISCQNEIGMVPISEEEVTQEDVENVVHTAKSVRVRDEHRVLHVIPQEYAIDYQEGIKNPVGLSGVRMQAKVHLITCHNDMAKNIVKAVERCGLKVDQLIFAGLASSYSVLTEDERELGVCVVDIGGGTMDIAVYTGGALRHTKVIPYAGNVVTSDIAYAFGTPPSDAEAIKVRHGCALGSIVGKDESVEVPSVGGRPPRSLQRQTLAEVIEPRYTELLNLVNEEILQLQEKLRQQGVKHHLAAGIVLTGGAAQIEGLAACAQRVFHTQVRIGAPLNITGLTDYAQEPYYSTAVGLLHYGKESHLNGEAEVEKRVTASVGSWIKRLNSWLRKEF
# B10: ftsA L54Q (protein)
# chain: MIKATDRKLVVGLEIGTAKVAALVGEVLPDGMVNIIGVGSCPSRGMDKGGVNDQESVVKCVQRAIDQAELMADCQISSVYLALSGKHISCQNEIGMVPISEEEVTQEDVENVVHTAKSVRVRDEHRVLHVIPQEYAIDYQEGIKNPVGLSGVRMQAKVHLITCHNDMAKNIVKAVERCGLKVDQLIFAGLASSYSVLTEDERELGVCVVDIGGGTMDIAVYTGGALRHTKVIPYAGNVVTSDIAYAFGTPPSDAEAIKVRHGCALGSIVGKDESVEVPSVGGRPPRSLQRQTLAEVIEPRYTELLNLVNEEILQLQEKLRQQGVKHHLAAGIVLTGGAAQIEGLAACAQRVFHTQVRIGAPLNITGLTDYAQEPYYSTAVGLLHYGKESHLNGEAEVEKRVTASVGSWIKRLNSWLRKEF
# B11: ftsA L54P (protein)
# chain: MIKATDRKLVVGLEIGTAKVAALVGEVLPDGMVNIIGVGSCPSRGMDKGGVNDPESVVKCVQRAIDQAELMADCQISSVYLALSGKHISCQNEIGMVPISEEEVTQEDVENVVHTAKSVRVRDEHRVLHVIPQEYAIDYQEGIKNPVGLSGVRMQAKVHLITCHNDMAKNIVKAVERCGLKVDQLIFAGLASSYSVLTEDERELGVCVVDIGGGTMDIAVYTGGALRHTKVIPYAGNVVTSDIAYAFGTPPSDAEAIKVRHGCALGSIVGKDESVEVPSVGGRPPRSLQRQTLAEVIEPRYTELLNLVNEEILQLQEKLRQQGVKHHLAAGIVLTGGAAQIEGLAACAQRVFHTQVRIGAPLNITGLTDYAQEPYYSTAVGLLHYGKESHLNGEAEVEKRVTASVGSWIKRLNSWLRKEF
# B12: ftsA V58Q (protein)
# chain: MIKATDRKLVVGLEIGTAKVAALVGEVLPDGMVNIIGVGSCPSRGMDKGGVNDLESVQKCVQRAIDQAELMADCQISSVYLALSGKHISCQNEIGMVPISEEEVTQEDVENVVHTAKSVRVRDEHRVLHVIPQEYAIDYQEGIKNPVGLSGVRMQAKVHLITCHNDMAKNIVKAVERCGLKVDQLIFAGLASSYSVLTEDERELGVCVVDIGGGTMDIAVYTGGALRHTKVIPYAGNVVTSDIAYAFGTPPSDAEAIKVRHGCALGSIVGKDESVEVPSVGGRPPRSLQRQTLAEVIEPRYTELLNLVNEEILQLQEKLRQQGVKHHLAAGIVLTGGAAQIEGLAACAQRVFHTQVRIGAPLNITGLTDYAQEPYYSTAVGLLHYGKESHLNGEAEVEKRVTASVGSWIKRLNSWLRKEF
# B13: ftsA V58P (protein)
# chain: MIKATDRKLVVGLEIGTAKVAALVGEVLPDGMVNIIGVGSCPSRGMDKGGVNDLESVPKCVQRAIDQAELMADCQISSVYLALSGKHISCQNEIGMVPISEEEVTQEDVENVVHTAKSVRVRDEHRVLHVIPQEYAIDYQEGIKNPVGLSGVRMQAKVHLITCHNDMAKNIVKAVERCGLKVDQLIFAGLASSYSVLTEDERELGVCVVDIGGGTMDIAVYTGGALRHTKVIPYAGNVVTSDIAYAFGTPPSDAEAIKVRHGCALGSIVGKDESVEVPSVGGRPPRSLQRQTLAEVIEPRYTELLNLVNEEILQLQEKLRQQGVKHHLAAGIVLTGGAAQIEGLAACAQRVFHTQVRIGAPLNITGLTDYAQEPYYSTAVGLLHYGKESHLNGEAEVEKRVTASVGSWIKRLNSWLRKEF
# B14: ftsA L382W (protein)
# chain: MIKATDRKLVVGLEIGTAKVAALVGEVLPDGMVNIIGVGSCPSRGMDKGGVNDLESVVKCVQRAIDQAELMADCQISSVYLALSGKHISCQNEIGMVPISEEEVTQEDVENVVHTAKSVRVRDEHRVLHVIPQEYAIDYQEGIKNPVGLSGVRMQAKVHLITCHNDMAKNIVKAVERCGLKVDQLIFAGLASSYSVLTEDERELGVCVVDIGGGTMDIAVYTGGALRHTKVIPYAGNVVTSDIAYAFGTPPSDAEAIKVRHGCALGSIVGKDESVEVPSVGGRPPRSLQRQTLAEVIEPRYTELLNLVNEEILQLQEKLRQQGVKHHLAAGIVLTGGAAQIEGLAACAQRVFHTQVRIGAPLNITGLTDYAQEPYYSTAVGWLHYGKESHLNGEAEVEKRVTASVGSWIKRLNSWLRKEF
# Target: Escherichia coli (laboratory strain)
# Assay: barcode share on antibiotic plates over drug-free plates; higher = less susceptible
# Conditions: antibiotic: carbenicillin; 2× MIC (3.1 µg/mL)
# Description: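 A pool of E. coli strains, each edited to carry one amino-acid change in an essential protein, was grown for 48 h on minimal glucose agar with or without antibiotic; strain barcodes were sequenced; mean of two replicates.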
row,Protein,fold change of barcode share
1,B1,0.371 ± 0.15
2,B2,1.24 ± 0.24
3,B3,0.294 ± 0.065
4,B4,1.43 ± 1.2
5,B5,0.745 ± 0.23
6,B6,0.698 ± 0.65
7,B7,0.227 ± 0.056
8,B8,0.349 ± 0.0097
9,B9,0.344 ± 0.041
10,B10,0.393 ± 0.092
11,B11,0.931 ± 0.14
12,B12,0.245 ± 0.058
13,B13,0.442 ± 0.13
14,B14,0.925 ± 0.6

# Same assay, conditions: antibiotic: gentamicin; 2× MIC (MIC 0.45 µg/mL)
row,Protein,fold change of barcode share
1,B1,0.00245 ± 0.00058
2,B2,0.0687 ± 0.089
3,B3,0.00476 ± 0.0026
4,B6,< 0.00648
5,B7,< 0.00891
6,B8,0.00552 ± 0.0015
7,B9,0.0105 ± 0.004
8,B10,< 0.00667
9,B11,0.0053 ± 0.0026
10,B12,0.0877 ± 0.0098
11,B13,< 0.0132
12,B14,0.0126 ± 0.0006
